Source: the RNAGym collection of RNA variant scans (doi:10.1101/gad.245936.114)
This sample is rich in variants without activity.

B1: tRNA (parent)
chain: CUCUCGGUAGCCAAGUUGGUUUAAGGCGCAAGACUUUAAUUUAUCACUACGAAAUCUUGAGAUCGGGCGUUCGACUCGCCCCCGGGAGAUUUUUUCCUCGAGCAA

Variants of: B1
Assay: nonsense suppression (GFP-seq) (ratio to wild type); higher = more function; SUP4oc tRNA, yeast GFP reporter sort-seq
In short: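 Nonsense suppression (GFPSEQ) is the median GFP/RFP ratio of each sorting bin, weighted by the variant's estimated share of cells in that bin and expressed relative to the unmutated parent tRNA. Yeast strains carried genome-integrated variants of an ochre-suppressor tRNA from a library with ~3% random mutations, plus a galactose-driven GFP ochre reporter and RFP, and were grown in raffinose/galactose medium containing 80 mg/L adenine. Cells were sorted into GFP/RFP bins, each bin was Illumina-sequenced (phred ≥30), and variants were kept only with ≥100 reads and ≥30 cells.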

Variant	nonsense suppression
CUCUCGGUAGCCAAGUUGGUUUAAGGCGCAAGACUUUAAUUUAUCACUACGAAAUUUUGAGAUCGGGCGUUCGACUCGCCCCCGGGAUAUUUUUUCCUCGAGCAA [C56U G88U]	≤ 0.026
CUCUCGGUAGCCAAGUUGGUUUAAGGCGCAAGACUUUAAUUUAUCACUACGAAAUUUUGAGAACGGGCGUUCGACUCGCCGCCCGGGGAUUUUUUCCUCGAGCAA [C56U U63A C81G G84C A87G]	≤ 0.026
CUCUCGGUAGCCAAGUUGGUUUAAGGCGCAAGACUUUAAUUUAUCACUACGAAAUUUUGAGACCGGGCGUUCGACUCGCCCCCGGGAGAUUUUUUCCUCGAGCAA [C56U U63C]	≤ 0.026
CUCUCGGUAGCCAAGUUGGUUUAAGGCGCAAGACUUUAAUUUAUCACUACGAAAUUUUGAGAUCGGGCGCUCGACCCGCCCCCGGGAGAUUUUUUCCUCGAGCAA [C56U U70C U76C]	≤ 0.026
CUCUCGGUAGCCAAGUUGGUUUAAGGCGCAAGACUUUAAUUUAUCACUACGAAAUUUUGAGAUCGGGCGUCCGACUCGCCCCCGGGAGAUUUUUUCCUCGAGCAA [C56U U71C]	≤ 0.026
CUCUCGGUAGCCAAGUUGGUUUAAGGCGCAAGACUUUAAUUUAUCACUACGAAAUCAUGCGAUCGGGCGUUCGACUCGCCCCCGGGAGAUUUUUUCCUCGAGCAA [U57A A60C]	0.0859
CUCUCGGUAGCCAAGUUGGUUUAAGGCGCAAGACUUUAAUUUAUCACUACGAAAUCAUGUGAUCGGGCGUUCGACUCGCCCCCGGGGGAUUUUUUCCUCGAGCAA [U57A A60U A87G]	≤ 0.026
CUCUCGGUAGCCAAGUUGGUUUAAGGCGCAAGACUUUAAUUUAUCACUACGAAAUCAUGAGAUCGGGCGUUCGCCUCGCCCCCGGGAGAUUUUUUCCUCGAGCAA [U57A A74C]	≤ 0.026
CUCUCGGUAGCCAAGUUGGUUUAAGGCGCAAGACUUUAAUUUAUCACUACGAAAUCAUGAGAUCGGGCGUUCGUCUCGCCCCCGGGAGAUUUUUUCCUCGAGCAA [U57A A74U]	≤ 0.026
CUCUCGGUAGCCAAGUUGGUUUAAGGCGCAAGACUUUAAUUUAUCACUACGAAAUCAUGAGAUCGGGCGUUCGACUCGCCCCCGGGAGCUUUUUUCCUCGAGCAA [U57A A89C]	≤ 0.026
CUCUCGGUAGCCAAGUUGGUUUAAGGCGCAAGACUUUAAUUUAUCACUACGAAAUCAUGAGAUCGGGGGUUCGACUCGCCCCCGGGAGAUUUUUUCCUCGAGCAA [U57A C68G]	≤ 0.026
CUCUCGGUAGCCAAGUUGGUUUAAGGCGCAAGACUUUAAUUUAUCACUACGAAAUCAUGAGAUCGGGCGUUGGACUCGCCCCCGGGAGAUUUUUUCCUCGAGCAA [U57A C72G]	≤ 0.026
CUCUCGGUAGCCAAGUUGGUUUAAGGCGCAAGACUUUAAUUUAUCACUACGAAAUCAUGAGAUCGGGCGUUCGAUUCGCCCCCGGGAGAUUUUUUCCUCGAGCAA [U57A C75U]	0.03
CUCUCGGUAGCCAAGUUGGUUUAAGGCGCAAGACUUUAAUUUAUCACUACGAAAUCAUGAGAUCGGGCGUUCGACUUGCCCCCGGGAGAUUUUUUCCUCGAGCAA [U57A C77U]	≤ 0.026
CUCUCGGUAGCCAAGUUGGUUUAAGGCGCAAGACUUUAAUUUAUCACUACGAAAUCAUGAGAUCGGGCGUUCGACUCGACCCCGGGAGAUUUUUUCCUCGAGCAA [U57A C79A]	≤ 0.026
CUCUCGGUAGCCAAGUUGGUUUAAGGCGCAAGACUUUAAUUUAUCACUACGAAAUCAUGAGAUCGGGCGUUCGACUCGGCCCCGAGAGAUUUUUUCCUCGAGCAA [U57A C79G G85A]	≤ 0.026
CUCUCGGUAGCCAAGUUGGUUUAAGGCGCAAGACUUUAAUUUAUCACUACGAAAUCAUGAGAUCGGGCGUUCGACUCGUCCCCGGGCGAUUUUUUCCUCGAGCAA [U57A C79U A87C]	≤ 0.026
CUCUCGGUAGCCAAGUUGGUUUAAGGCGCAAGACUUUAAUUUAUCACUACGAAAUCAUGAGAUCGGGCGUUCGACUCGCCGCCGGGAGGUUUUUUCCUCGAGCAA [U57A C81G A89G]	≤ 0.026
CUCUCGGUAGCCAAGUUGGUUUAAGGCGCAAGACUUUAAUUUAUCACUACGAAAUCAUGAGAUCGGGCGUUCGACUCGCCCACGGGAGAUUUUUUCCUCGAGCAA [U57A C82A]	≤ 0.026
CUCUCGGUAGCCAAGUUGGUUUAAGGCGCAAGACUUUAAUUUAUCACUACGAAAUCAUGAGAUCGGGCGUUCGACUCGCCCGCGGGAGAUUUUUUCCUCGAGCAA [U57A C82G]	≤ 0.026
CUCUCGGUAGCCAAGUUGGUUUAAGGCGCAAGACUUUAAUUUAUCACUACGAAAUCAUGAGAUCGGGCGUUCGACUCGCCCUCGGGAGAUUUUUUCCUCGAGCAA [U57A C82U]	≤ 0.026
CUCUCGGUAGCCAAGUUGGUUUAAGGCGCAAGACUUUAAUUUAUCACUACGAAAUCAUGAGAUCGGGCGUUCGACUCGCCCCUGGGACCUUUUUUCCUCGAGCAA [U57A C83U G88C A89C]	≤ 0.026
CUCUCGGUAGCCAAGUUGGUUUAAGGCGCAAGACUUUAAUUUAUCACUACGAAAUCAUUAGAUCGGGCGAUCGACUCGCCCCCGGGAGAUUUUUUCCUCGAGCAA [U57A G59U U70A]	≤ 0.026
CUCUCGGUAGCCAAGUUGGUUUAAGGCGCAAGACUUUAAUUUAUCACUACGAAAUCAUGAAGUCGGGCGUUCGACUCGCCCCCGGGAGAUUUUUUCCUCGAGCAA [U57A G61A A62G]	≤ 0.026
CUCUCGGUAGCCAAGUUGGUUUAAGGCGCAAGACUUUAAUUUAUCACUACGAAAUCAUGACAUCAGGCGUUCGACUCGCCCCCGGGAGAUUUUUUCCUCGAGCAA [U57A G61C G65A]	≤ 0.026
CUCUCGGUAGCCAAGUUGGUUUAAGGCGCAAGACUUUAAUUUAUCACUACGAAAUCAUGAGAUCAGGCGUUCGACUCGCCCCCGGGAGAUUUUUUCCUCGAGCAA [U57A G65A]	≤ 0.026
CUCUCGGUAGCCAAGUUGGUUUAAGGCGCAAGACUUUAAUUUAUCACUACGAAAUCAUGAGAUCCGGCGUUCGACUCGCCCCCGGGACAUUUUUUCCUCGAGCAA [U57A G65C G88C]	≤ 0.026
